Test results taken from the supplement of paper PMC10126150.
Sequences with one replicate were seen in a single cluster, so their values are uncertain.

System: ATP
Test: switch fluorescence ratio, 500 uM ATP over buffer (Cy3 cluster intensity, sum of 5 cycles each) (fold (ratio)); higher = stronger signal-on switching upon ATP binding; sequences stand for … in TCGTCGGCAGCGTCAGATGTGTATAAGAGACAGTTTTTTTTTTTTTTTTTTTTTTTTT…TC
Details: aptamer strand: ATP DNA aptamer (quencher-CACCTGGGGGAGTATTGCGGAGGAAGG + anchor), 100 nM annealed; ATP concentration: 500 uM; one replicate
In short: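 Clusters with intensities outside 100-1000 RFU were excluded. The remaining Cy3-labelled switching-strand clusters on a modified Illumina MiSeq flow-cell had been annealed to 100 nM quencher-labelled ATP aptamer and imaged in selection buffer, then after 15 min with 500 uM ATP at 22 °C, for five cycles separated by NaOH stripping and re-annealing. The fluorescence ratio, averaged per switch-domain sequence, is each cluster's summed target-cycle Cy3 intensity over its summed buffer-cycle Cy3 intensity.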
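Also: ATP exposure 15 min at 22 °C before imaging.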

Row | Sequence | switch fluorescence ratio
1 | CCATTTGGGT | 0.986
2 | GGATCAGAGC | 0.949
3 | GGTCAGACGC | 1.06
4 | AATCTAGTGA | 1.02
5 | GCGGGTACCA | 1
6 | TTGGTAATTT | 0.969
7 | TATTACAGAC | 1.2
8 | GTGAAACAGG | 1.03
9 | TCGAAAGGAT | 0.972
10 | GGCAACTTAG | 1.07
11 | CGCATGACAG | 1
12 | GCTGTAATCG | 0.989
13 | CTCATGATTT | 1.05
14 | CTCGCGGGGG | 1.02
15 | CTAGTGCCGG | 0.977
16 | CCGTACAAAG | 1.17
17 | TTGAAATGGA | 1
18 | TTGGTACGTT | 0.977
19 | GGGCCTTTGT | 1
20 | TTGAGTAACC | 1.06
21 | AATGCAACCG | 1.04
22 | GCGAATCTCT | 1.04
23 | GCCTTGGAGT | 0.989
24 | ACGCAGCAGT | 4.47
25 | GGTGCGTCTT | 0.914

Row | Sequence | switch fluorescence ratio
26 | GACATTGA | 1.02
27 | GATTGCCTG | 0.969
28 | TTGAACCTGG | 1.02
29 | TGGAACCGCG | 1.05
30 | TGAAACCAGC | 1.02
31 | CAAAATTGTA | 1.03
32 | TCGTTTTTGT | 0.958
33 | GAAACTCCCC | 1.99
34 | AGATTTGAAG | 0.978
35 | ATACCGGTAG | 1.03
36 | ATTCTAATCA | 1.01
37 | AGTCACGGTC | 1.01
38 | CCGGAATTTC | 2.57
39 | ATATTTACG | 1.03
40 | AGCAGCGCTA | 1.06
41 | AAGATTCAAG | 0.955
42 | GAATATTAGC | 0.996
43 | AAGAGGCTGA | 1.02
44 | CTTGGGTCGG | 0.968
45 | ATTCTTGGT | 1
46 | TTTGGTAGCG | 1.04
47 | CTCAGCCCCG | 1.03
48 | AGGTGTTTAT | 1.01
49 | TAGGCTGAT | 0.982
50 | ATGAAAGAGG | 0.944

Row | Sequence | switch fluorescence ratio
51 | TTCCTATGGC | 1.01
52 | GCCAGCTATC | 1.3
53 | TGAGGACGAG | 1.01
54 | ATCGTTGGGA | 1
55 | CTATTAATCC | 0.983
56 | CGAGTATTAG | 1
57 | AGAAGTCTGC | 1.01
58 | CGAGTTGCAG | 1
59 | GCGAGCCCGC | 0.978
60 | AAACCGAGAA | 0.969
61 | CAATAACAAG | 1.02
62 | CAGATGGGTT | 1.01
63 | GTAACATCGG | 1.04
64 | TAGGCTGTTG | 1.19
65 | TGGGATAAGG | 0.942
66 | CCTAAGTCGC | 1.11
67 | GCGCCGTGTG | 0.998
68 | ATGAGGTGTT | 1.05
69 | TAAAGACGAT | 1
70 | GGGCGTATGG | 0.97
71 | CCGGCTAGGT | 1.03
72 | TTGCTGAGTA | 0.973
73 | GGAAGCGCGA | 1.06
74 | AGAGGGAGGT | 0.987
75 | TACGGGCATT | 1.16

Row | Sequence | switch fluorescence ratio
76 | TCTCGAGGGC | 0.989
77 | TTATTAACCA | 1.05
78 | TTAAGCGTTC | 0.969
79 | TCATACGAGG | 1.02
80 | GCAGAGGACT | 1.06
81 | CGCGGAGAGT | 1.01
82 | GAAAGGGATC | 1.07
83 | TACTAACGT | 1.49
84 | CTAGCCAGCG | 0.985
85 | GAAACCAGTT | 1.07
86 | AGGACTCTTG | 0.977
87 | TGTAGGTCGG | 0.996
88 | TAGGAGGCG | 0.979
89 | TCTTCTAGAA | 0.965
90 | GATCGGGCAT | 1
91 | GGCAGACGTT | 0.986
92 | CATCGGCCGG | 1
93 | TTAATTGTTG | 0.95
94 | ATCGTCCTGA | 0.979
95 | GTCGGGCAGC | 1.01
96 | AGTGTTACGA | 0.997
97 | GTATTTAACC | 1.04
98 | CAGTATTGAG | 1.01
99 | AACGGGGCG | 0.955
100 | GTCGGGATCA | 1.02

Row | Sequence | switch fluorescence ratio
101 | TCCACACGTT | 0.967
102 | GGTATTCTCT | 0.965
103 | GTGCGCAAGG | 1.19
104 | TATTCTTTAA | 1.02
105 | TCTGTTCCCC | 1.28
106 | CGACGGAACC | 3.26
107 | CTAATCCGGG | 1.08
108 | TGCAACGGCT | 0.969
109 | ACCGCATGGG | 1.17
110 | TGATGATTGA | 0.977
111 | GCAACAAGAA | 1.02
112 | CTTGGGCTAT | 0.975
113 | AATCATAGCT | 1.01
114 | CTGCTCTTTT | 0.981
115 | CGCGCTCACT | 1.34
116 | TGGTAGCGGA | 1
117 | ATCGAGAGTA | 0.982
118 | CTGGGCGTCC | 0.988
119 | TTTTCGAGTT | 0.966
120 | AGGAGGAGGT | 1.08
121 | TTGCGGTTAA | 1.57
122 | CAACAGATAT | 1.01
123 | GTTTACCCGG | 0.942
124 | TAGGCGAGCA | 0.983
125 | GCACCGCCGT | 1.1

Row | Sequence | switch fluorescence ratio
126 | ACACATATGA | 1.04
127 | CTTTGGCGGT | 0.979
128 | GGATGACAGT | 1.04
129 | TGCTGGTACA | 1
130 | TCTTTCTGGA | 0.968
131 | GGCACTGTCG | 1.02
132 | TGGAGTTCT | 0.997
133 | CACTATCATT | 1
134 | TTTCGTCCGT | 1.1
135 | TCGACCAGAC | 3.88
136 | CCCAACCGCG | 1.41
137 | GTCGCGATTG | 1.04
138 | GACTTATATC | 1.01
139 | TTACTCGGCT | 1.04
140 | TTATCGCCTA | 0.998
141 | TGCGTCGTCC | 0.94
142 | TAAGACCATT | 1.14
143 | CAGGTCAAGT | 1.01
144 | GCGCTTGGTG | 1.03
145 | GTAGTTTGGT | 1.01
146 | GGGTTATCTT | 1.02
147 | AAGGAGCCGG | 1.01
148 | TGTGCGTCG | 0.994
149 | GTAGGTGGAG | 0.974
150 | TTACATCATG | 0.962

Row | Sequence | switch fluorescence ratio
151 | TAAACTCGCC | 1.12
152 | CGATAAGTTG | 0.986
153 | TCGAGGTGC | 0.986
154 | GATGTATTGG | 0.972
155 | TTCGACAAAA | 1.32
156 | CCCTGAGACA | 1.04
157 | AGCTGGACGG | 1.03
158 | CGTAAGTTAC | 1.31
159 | CTAAGCACAA | 1.13
160 | CGGCTGAAG | 0.965
161 | AGACCTGTTT | 1
162 | CATGCTGAGC | 0.996
163 | GGACGCCGTT | 0.962
164 | AGATTGGCTG | 0.979
165 | CATGAGAGCC | 1.01
166 | TATCATTCT | 1.01
167 | GAGGTCATT | 1.01
168 | ACGCTTAGCA | 1.04
169 | CTTGGACAGG | 1.01
170 | AAAGCGCGTG | 1.02
171 | TCCCAACGTA | 1.08
172 | TGGTTGAAGC | 0.971
173 | TTATGCGAAG | 0.98
174 | GATTGATCCC | 1.01
175 | TGTTGTTAGC | 1.03

Row | Sequence | switch fluorescence ratio
176 | TCCTTATCGA | 1
177 | GACCGGCGGC | 0.938
178 | CTTCAGGGAG | 0.991
179 | TGCTGGTTTC | 0.974
180 | GGCTGGATGC | 1.01
181 | GGGGACCCTT | 1.02
182 | GATTCGGGGC | 0.958
183 | ATCGGTGGCT | 1
184 | AGGCGAGACA | 1.02
185 | TTTGTTGCAT | 0.959
186 | CCGGTTTCTT | 0.988
187 | TCATTGTTTC | 1
188 | CCCAAGTATG | 1.05
189 | GTTTTGCGTC | 0.978
190 | CACGGTTTAT | 1.04
191 | ACGGCCCAAA | 1.05
192 | TGACAGCCA | 1.8
193 | CTCAAACGAG | 1.03
194 | CGTGCACGGG | 1.01
195 | CGAGTCTCAG | 1.03
196 | GACCTAGTAT | 1.01
197 | GCACTAGGAA | 0.972
198 | TGGACAATCA | 0.952
199 | ACGGGACCGA | 0.992
200 | GGTTATCGTG | 0.997
